Data: PubChem BioAssay AID485364 (National Center for Advancing Translational Sciences (NCATS), 2010)
The whole screen tested about 360,000 compounds, of which about 11,000 (3.1%) were called active. Inconclusive means that the source gave no clear call. Such entries were picked first, then a sample of the others. Calls follow the shape of the dose curve; as a rule, active = well fitted inhibition curve with a large enough effect; inconclusive = small, poorly fitted or top-dose-only effect; inactive = no such curve, though single readings can be large or run the other way. Potencies of inconclusive entries are left out as doubtful fits.
Also: nearly all actives have a fitted effect of over 60% in size.
Potency is read from the fitted curve at half-maximal effect; tags tell the direction and shape of the fitted curve.

The molecules below were run against Schistosoma mansoni thioredoxin glutathione reductase (TGR) (UniProt Q962Y6) (assay: qHTS Assay for the Inhibitors of Schistosoma Mansoni Peroxiredoxins). Details: purified TGR, DTNB reduction, TNB absorbance 405 nm; series mostly up to 114 µM.
Method in brief: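 TGR 20 nM + NADPH 100 uM (dispensed conc.), cpd preinc 15 min RT; start with NADPH (500 uM addition) then DTNB (15 mM addition). Kinetic TNB absorbance, 405 nm filter. Four-parameter Hill fit across titration.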
In the case of `Cc1cc(C)c[n+](CC(=O)c2cc3ccccc3oc2=O)c1`, the Potency is reported as inconclusive [inhibitor, partial curve, poor fit]. In the case of `Cc1ccccc1NC(=O)CSc1nc(-c2ccco2)nc2cc(=O)[nH]n12`, the Potency is reported as active: 39.8 µM. With `CCn1c2ccccc2c2nnc(SCC(=O)NC(CC(C)C)C(=O)OC)nc21` (stereo unspecified) the Potency was inconclusive [inhibitor, single point]. In the case of `O=C(CSc1c2c(nc3ccccc13)CCCC2)NCc1ccco1`, the Potency is reported as inconclusive [inhibitor, full curve, poor fit]. `CCC(=O)c1cn(/C(=C\C(=O)OC(C)(C)C)CCC(OC)OC)cc1CC` was tested, and the Potency was inconclusive [inhibitor, partial curve]. `Cc1ccc(C(=O)Oc2cc(-c3ccc4c(c3)OCO4)cc(=O)c3c(C)oc(C)c23)cc1` was tested, and the Potency was inconclusive [inhibitor, full curve]. `CCN(CC)S(=O)(=O)c1ccc(Oc2ccc(S(=O)(=O)N(CC)CC)cc2)cc1` was tested, and the Potency was “inactive”. For `CC(=O)N1CCc2cc(S(=O)(=O)CCC(=O)N(C)c3cc(C)ccc3C)ccc21`, the Potency was inconclusive [inhibitor, partial curve]. In the case of `O=C1/C(=C/c2ccccc2O)SC(=S)N1Cc1cccnc1`, the Potency is reported as inconclusive [inhibitor, single point]. `CN(CC1CCN(CCc2cccc(C(F)(F)F)c2)CC1)C(=O)c1ccc(F)cc1F` was tested, and the Potency was active: 39.8 µM. In the case of `O=C(NC1CC1)C1=C[C@H](c2ccc(C(F)(F)F)cc2)C[C@H](OCc2ccc(CO)cc2)O1`, the Potency is reported as inconclusive [inhibitor, partial curve]. In the case of `COc1ccc(-c2cc(=Nc3ccc(C(=O)O)cc3)c3cc(C)ccc3o2)cc1`, the Potency is reported as “inactive”. `O=C1NC(=Nc2ccccc2)S/C1=C\C=C\c1ccco1` was tested, and the Potency was active: 11.2 µM. In the case of `CC(=O)c1cccc(N(CC(=O)Nc2cccnc2)S(C)(=O)=O)c1`, the Potency is reported as inconclusive [inhibitor, full curve]. For `COC(=O)c1ccc(C23CC4(C2)[C@H](CN(CC2CCCCC2)[C@@H]4c2ccccc2)C3c2ccc(C(F)(F)F)cc2)cc1` (stereo partly specified), the Potency was inconclusive [inhibitor, partial curve]. With `O=C(Cc1ccc(Cl)cc1)NNC(=S)NC(=O)c1cccs1` the Potency was “inactive”. `CC(C)n1cnc2cc(NCc3ccccn3)ccc21` was tested, and the Potency was “inactive”. In the case of `COc1cc(NC(=S)NCc2cccnc2)cc(OC)c1`, the Potency is reported as inconclusive [inhibitor, full curve]. In the case of `CCn1ccc2c(OCC(=O)Nc3ccc(C(C)=O)cc3)cccc2c1=O`, the Potency is reported as “inactive”. For `CN(C1CCCCC1)S(=O)(=O)c1ccc2c(c1)c(=O)c(C(=O)NCc1ccc(F)cc1)cn2C`, the Potency was inconclusive [inhibitor, single point]. With `CCCC(=O)Nc1ccc(Cl)c(NC(=O)c2cccnc2)c1` the Potency was “inactive”. For `Cc1cccc(NC(=O)C2CCCC2)c1`, the Potency was “inactive”. `CO/N=C/C(C#N)c1ncc(C(F)(F)F)cc1Cl` (stereo unspecified) was tested, and the Potency was inconclusive [inhibitor, partial curve, poor fit]. In the case of `COC(=O)C1=C(C)N(c2ccc(C)c(C)c2)/C(=C/c2ccco2)C1=O`, the Potency is reported as active: 35.5 µM. `CCC/C(=N\O)c1c[nH]c2ccccc12` was tested, and the Potency was inconclusive [inhibitor, single point]. For `O=C(NCc1ccco1)c1ccccc1-c1nc(-c2ccc(F)cc2)no1`, the Potency was inconclusive [inhibitor, full curve]. With `c1ccc(Cn2c(NCc3ccncc3)nc3ccccc32)cc1` the Potency was “inactive”. In the case of `O=C(O)COc1ccc(Br)cc1C(c1c(C(=O)O)[nH]c2ccccc12)c1c(C(=O)O)[nH]c2ccccc12`, the Potency is reported as inconclusive [inhibitor, full curve, poor fit]. `CSc1nc(N2CCN(C)CC2)c2ccccc2n1` was tested, and the Potency was inconclusive [inhibitor, partial curve]. For `COc1ccc(-c2nnc(SCC(=O)Nc3ccccc3)n2C)cc1`, the Potency was inconclusive [inhibitor, single point]. `COc1ccc(OCCn2cncn2)cc1` was tested, and the Potency was inconclusive [inhibitor, single point]. With `CCOC(=O)C1CCN(c2nc3c(S(=O)(=O)c4ccccc4)nnn3c3ccc(Cl)cc23)CC1` the Potency was “inactive”. `CCOC(=O)/C=C/C(=O)OCC(=O)NCc1ccccc1` was tested, and the Potency was active: 25.1 µM. In the case of `CCSCCOC(=O)C1=C(C)NC2=C(C(=O)CCC2)C1c1coc2ccccc2c1=O` (stereo unspecified), the Potency is reported as inconclusive [inhibitor, full curve, poor fit]. For `CCOC(=O)c1cccc(NS(=O)(=O)c2ccc3[nH]c4c(c3c2)CCCC4)c1`, the Potency was “inactive”. `Cc1ccc(C)c(C(=O)COC(=O)C(C)N2C(=O)C3C4CCC(C4)C3C2=O)c1` (stereo unspecified) was tested, and the Potency was active: 22.4 µM. With `Cc1nc2cc(C(F)(F)F)ccc2n1CCNc1nc(-c2ccc(F)cc2)cs1` the Potency was inconclusive [inhibitor, partial curve]. `COc1ccc(/C=c2/sc3n(c2=O)C(c2ccccc2OC)C2=C(N=3)c3ccccc3CC2)cc1O` (stereo unspecified) was tested, and the Potency was “inactive”. In the case of `COCCNc1oc(Cc2cccc3ccccc23)nc1C#N`, the Potency is reported as inconclusive [inhibitor, partial curve]. With `O=C(CSc1nccc(=O)[nH]1)N1N=C2/C(=C/c3ccco3)CCCC2C1c1ccco1` (stereo unspecified) the Potency was active: 22.4 µM. `Cn1c(SC/C=C/c2ccccc2)nnc1-c1ccco1` was tested, and the Potency was inconclusive [inhibitor, partial curve]. In the case of `COc1cccc(N2CCN(CC(=O)N3CCN(S(=O)(=O)c4ccc(Cl)cc4)CC3)CC2)c1`, the Potency is reported as “inactive”. With `O=C(c1ccc(C(F)(F)F)cc1)C1CCCN(Cc2cccn2-c2ncccn2)C1` (stereo unspecified) the Potency was inconclusive [inhibitor, partial curve]. `CCS(=O)(=O)N1CCC(C(=O)Nc2ccccc2OC)CC1` was tested, and the Potency was “inactive”. In the case of `COc1cccc(/C(O)=C2/C(=O)C(=O)N(CCN3CCOCC3)C2c2cccs2)c1` (stereo unspecified), the Potency is reported as inconclusive [inhibitor, partial curve]. `CN(C(=S)NC(=O)C1CC1)c1ccc(O)cc1` was tested, and the Potency was inconclusive [inhibitor, partial curve]. `COCCN(C(=O)c1cc(Cl)ccn1)c1c(N)n(Cc2ccccc2)c(=O)[nH]c1=O` was tested, and the Potency was “inactive”. With `Cc1cc(C)nc(SCC2COc3ccccc3O2)n1` (stereo unspecified) the Potency was “inactive”. In the case of `COc1ccc(CSc2nc(C)cc(C)c2S(C)(=O)=O)cc1`, the Potency is reported as inconclusive [inhibitor, single point]. In the case of `Brc1cccc(CSc2nnc(-c3ccncc3)o2)c1`, the Potency is reported as inconclusive [inhibitor, partial curve]. With `O=S(=O)(c1ccc(-c2ccon2)s1)N1CCN(c2ccncc2)CC1` the Potency was inconclusive [inhibitor, full curve, poor fit]. In the case of `CC(CCc1ccccc1)NC(C)C(O)c1ccc(O)cc1` (stereo unspecified), the Potency is reported as “inactive”. `O=C(N/N=C/c1c(O)n(Cc2ccc(F)cc2)c(=O)[nH]c1=O)c1ccccc1O` was tested, and the Potency was active: 35.5 µM. In the case of `O=C(CSc1ccc(-c2ccco2)nn1)NCc1ccc(F)cc1`, the Potency is reported as active: 35.5 µM. With `C=CCn1c(O)c(/C=C2\C=Nc3ccccc32)c(=O)[nH]c1=O` the Potency was inconclusive [inhibitor, partial curve]. For `CCOC1(NC(=O)c2ccccc2)C(C)=CC(=O)C=C1C`, the Potency was active: 25.1 µM. With `Nc1nc(-c2ccc(Oc3ccccc3)cc2)c(CC(=O)O)s1` the Potency was inconclusive [inhibitor, partial curve]. In the case of `O=c1c2cc(NC(=S)NCCCN3CCC(Cc4ccccc4)CC3)ccc2nc2n1CCCCC2`, the Potency is reported as inconclusive [inhibitor, partial curve, poor fit]. In the case of `COC(=O)c1cc(Cl)ccc1NC(=O)CSc1ncc(S(=O)(=O)c2ccc(Br)cc2)c(=O)[nH]1`, the Potency is reported as “inactive”. For `Cc1oc(-c2ccccc2)nc1CS(=O)CC(=O)NC1CCCC1` (stereo unspecified), the Potency was active: 7.94 µM. `CC(C)CC(=O)Nc1ccccc1OCc1cc(=O)n2ccccc2n1` was tested, and the Potency was “inactive”. `Clc1cccc(Cl)c1CN1CCN(c2ncccn2)CC1` was tested, and the Potency was inconclusive [inhibitor, partial curve, poor fit]. `CCN1C(=O)[C@H]2[C@@H](c3ccc(-c4ccc(F)cc4)c(OC)c3)N3CCC[C@@]3(C(=O)OC)[C@H]2C1=O` was tested, and the Potency was inconclusive [inhibitor, partial curve]. `O=C(COC(=O)CSc1ccc(F)cc1)NCc1ccco1` was tested, and the Potency was inconclusive [inhibitor, partial curve]. In the case of `CC(=O)/C(N=Nc1c(C)n(C)n(-c2ccccc2)c1=O)=C(\C)O`, the Potency is reported as inconclusive [inhibitor, single point]. In the case of `CCCCCC(=O)N1CCN(CCN=CC2=C(O)CC(c3ccc(OC)cc3)CC2=O)CC1` (stereo unspecified), the Potency is reported as active: 50.1 µM. For `CCOC(=O)c1c(S(=O)(=O)N2CCC(C(=O)Nc3ncccc3C)CC2)c(C)n(C)c1C`, the Potency was “inactive”. `CCN1C(=O)[C@H]2[C@@H](c3ccc(-c4ccc(Cl)c(Cl)c4)c(OC)c3)N[C@@](Cc3ccccc3)(C(=O)OC)[C@H]2C1=O` was tested, and the Potency was inconclusive [inhibitor, partial curve]. With `O=C(CCN1CCC(c2cccs2)=N1)c1cccs1` the Potency was inconclusive [inhibitor, full curve, poor fit]. With `CCN1/C(=C/c2ccc3cc(C)ccc3[n+]2CC)Sc2ccccc21` the Potency was “inactive”. With `COC(=O)CSC1=C(C#N)C(=O)NC(c2ccccc2)S1` (stereo unspecified) the Potency was inconclusive [inhibitor, partial curve].
